Data published in PubChem BioAssay AID1347165 (National Center for Advancing Translational Sciences (NCATS), 2019).
About 5,700 (2.6%) of roughly 220,000 compounds were called active. Inconclusive means that the source gave no clear call. Such entries were picked first, then a sample of the others. The call rests on the fitted dose curve; in most records, active means well fitted inhibition curve with a large enough effect; inconclusive means small, poorly fitted or top-dose-only effect; inactive means no such curve, though single readings can be large or run the other way. Where the call is inconclusive, the potency comes from a doubtful curve fit.

target: Lysine-specific demethylase 5B (Homo sapiens) (UniProt Q9UGL1); assay: Primary screen for KDM5B Histone Demethylases FDH-coupled qHTS; conditions: FDH-coupled NADH fluorescence (FDH is formaldehyde dehydrogenase); activity change, negative = inhibition: at 57.7 µM (top of the series) unless noted; further: nearly all actives have a fitted effect of over 70% in size; on activity change, negative = inhibition: 0% is about no effect
Outline: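 Here, H3K4me3 peptide (12.5 µM in substrate mix) is demethylated by KDM5BΔAP, 200 nM final, after 10 min compound exposure. Formaldehyde product is coupled through FDH (0.25 U/mL in mix) to NADH fluorescence; 30-min ΔRFU feeds dose-response curves.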
Potency means the concentration at half of the fitted maximal effect; tags describe the fitted curve by direction and shape.

UniProt Q9UGL1, sequence (Q9UGL1 whole entry, looked up): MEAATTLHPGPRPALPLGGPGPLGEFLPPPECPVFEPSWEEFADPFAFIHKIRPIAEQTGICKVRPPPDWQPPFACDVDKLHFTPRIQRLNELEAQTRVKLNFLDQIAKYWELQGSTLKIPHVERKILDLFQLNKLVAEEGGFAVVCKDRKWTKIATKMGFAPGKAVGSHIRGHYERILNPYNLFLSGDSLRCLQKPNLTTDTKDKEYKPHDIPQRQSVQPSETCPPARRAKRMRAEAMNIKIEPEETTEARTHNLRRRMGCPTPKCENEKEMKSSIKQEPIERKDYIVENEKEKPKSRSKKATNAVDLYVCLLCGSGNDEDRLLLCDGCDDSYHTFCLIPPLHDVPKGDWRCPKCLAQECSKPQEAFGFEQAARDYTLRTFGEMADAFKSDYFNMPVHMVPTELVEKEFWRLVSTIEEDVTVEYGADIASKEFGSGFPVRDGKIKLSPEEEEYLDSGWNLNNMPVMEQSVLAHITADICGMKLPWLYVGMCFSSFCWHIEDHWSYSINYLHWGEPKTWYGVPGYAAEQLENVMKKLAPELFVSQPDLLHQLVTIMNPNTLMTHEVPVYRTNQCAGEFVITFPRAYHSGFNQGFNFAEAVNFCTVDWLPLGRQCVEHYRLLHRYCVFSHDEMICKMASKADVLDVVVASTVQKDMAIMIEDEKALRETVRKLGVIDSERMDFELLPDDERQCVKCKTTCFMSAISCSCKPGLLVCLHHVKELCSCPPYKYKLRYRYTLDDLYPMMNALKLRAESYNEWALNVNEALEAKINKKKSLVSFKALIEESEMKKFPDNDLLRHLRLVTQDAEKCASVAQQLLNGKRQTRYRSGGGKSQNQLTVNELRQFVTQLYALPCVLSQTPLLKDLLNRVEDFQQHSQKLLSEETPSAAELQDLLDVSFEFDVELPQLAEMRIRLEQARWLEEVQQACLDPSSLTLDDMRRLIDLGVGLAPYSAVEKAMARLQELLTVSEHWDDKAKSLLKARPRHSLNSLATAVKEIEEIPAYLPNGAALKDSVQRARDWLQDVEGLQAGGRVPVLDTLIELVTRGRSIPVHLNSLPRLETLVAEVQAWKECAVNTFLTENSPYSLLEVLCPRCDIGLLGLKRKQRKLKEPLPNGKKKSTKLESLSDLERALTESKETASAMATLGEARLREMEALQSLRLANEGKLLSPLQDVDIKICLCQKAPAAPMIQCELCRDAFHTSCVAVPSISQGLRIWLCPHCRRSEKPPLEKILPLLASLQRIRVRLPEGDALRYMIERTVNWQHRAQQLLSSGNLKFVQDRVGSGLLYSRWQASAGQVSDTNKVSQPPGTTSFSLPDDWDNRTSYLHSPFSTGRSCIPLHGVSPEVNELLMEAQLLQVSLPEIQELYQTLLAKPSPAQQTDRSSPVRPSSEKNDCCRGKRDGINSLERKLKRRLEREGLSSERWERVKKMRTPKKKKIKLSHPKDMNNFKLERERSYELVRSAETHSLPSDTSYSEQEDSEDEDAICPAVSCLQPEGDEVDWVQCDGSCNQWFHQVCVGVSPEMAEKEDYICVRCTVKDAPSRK

Q: With CSc1cccc(NC(=O)C2CCCC2)c1 as the molecule, how does the “activity change, negative = inhibition” value read?
A: inactive: -5.75%

Q: How did the Potency turn out when Clc1ccc2c(c1)-c1c(cnc3cc(-c4ccccc4)nn13)CO2 was run?
A: inconclusive: 2.24 µM [inhibitor, full curve, poor fit]

Q: With O=C(NCC12CC3CC(C1)CC(CNC(=O)c1ccc(Cl)cc1)(C3)C2)c1ccc(Cl)cc1 as the molecule, how does the “activity change, negative = inhibition” value read?
A: inactive: 3.01%

Q: COCC(=O)N[C@H]1C[C@H]2C(=O)Nc3ccc(/C=C/c4ccccc4)cc3C(=O)N2C1 was tested. Which “activity change, negative = inhibition” value did it give?
A: inactive: -1620% [at 86.2 µM]

Q: For CCn1cc(CN2CCc3ccccc3C2)ccc1=O, which Potency is on record?
A: inconclusive: 12.6 µM [inhibitor, partial curve]

Q: With COC(=O)COc1ccc2oc(-c3ccc(OC)cc3)cc(=O)c2c1 as the molecule, how does the Potency read?
A: inconclusive: 31.6 µM [inhibitor, partial curve, poor fit]

Q: With COCc1noc([C@@H]2CC(F)(F)CN2C(=O)c2coc(C)n2)n1 as the molecule, how does the “activity change, negative = inhibition” value read?
A: inactive: 26.4%

Q: With O=C(O)CNS(=O)(=O)c1ccc(Br)cc1 as the molecule, how does the “activity change, negative = inhibition” value read?
A: inactive: -9.77%

Q: COc1ccc(OCC(=O)Nc2ccc3c(=O)c4cccc(F)c4oc3c2)cc1 was tested. Which Potency did it give?
A: inconclusive: 22.4 µM [inhibitor, single point]

Q: Which Potency does the source give for Cc1ccc(SCC(=O)Nc2ccc(N3CCOCC3)cc2)cc1C here?
A: inconclusive: 12.6 µM [inhibitor, partial curve, poor fit]

Q: O=S(=O)(NCCc1cn2ccccc2n1)c1ccccc1C(F)(F)F was tested. Which “activity change, negative = inhibition” value did it give?
A: inactive: 15.2%

Q: Which Potency does the source give for O=C(CCc1ccnc(N2CCCC2)c1)NCc1ccc(F)c(Cl)c1 here?
A: inconclusive: 28.2 µM [inhibitor, partial curve, poor fit]

Q: Cc1cc(C(=O)OC(C)C(=O)Nc2ccc(F)cc2Cl)c(C)o1 (stereo unspecified) was tested. Which “activity change, negative = inhibition” value did it give?
A: inactive: -22.1%

Q: How did the Potency turn out when Cc1ccc(-c2ncc(NC(=O)c3ccccc3F)cn2)cc1 was run?
A: inconclusive: 15.8 µM [inhibitor, partial curve]

Q: How did the Potency turn out when Cc1ccc(N2C(=O)NC(NS(=O)(=O)c3ccccc3)(C(F)(F)F)C2=O)cc1C (stereo unspecified) was run?
A: inconclusive: 3.16 µM [inhibitor, partial curve, poor fit]

Q: How did the Potency turn out when COc1ccc(CNC(=O)CCCn2nc(C)c3sc4ccccc4c3c2=O)cc1OC was run?
A: inconclusive: 39.8 µM [inhibitor, single point]

Q: For Cc1ccc(CC(=O)NCc2nnc3c(-c4nc(C(C)C)no4)cccn23)cc1, which Potency is on record?
A: inconclusive: 25.1 µM [inhibitor, partial curve, poor fit]

Q: For O=C(N[C@H]1CCN2C(=O)c3cc(/C=C/c4ccccc4)ccc3NC(=O)[C@H]12)c1cnccn1, which Potency is on record?
A: inconclusive: 10 µM [inhibitor, full curve]

Q: How did the “activity change, negative = inhibition” value turn out when COc1ccc(C(=O)N[C@H]2C[C@@H](Cc3cc(-c4ccccc4)on3)C2(C)C)cc1 was run?
A: inactive: 8.84% [at 86.2 µM]

Q: CCOc1ccc(CNc2nc(NCc3ccc(OCC)cc3)n(C(=O)CC(C)C)n2)cc1 was tested. Which Potency did it give?
A: inconclusive: 35.5 µM [inhibitor, single point]

Q: How did the Potency turn out when CCCN1CCN(C(=O)Cn2c(-c3cccs3)cc3ccccc32)CC1 was run?
A: inconclusive: 31.6 µM [inhibitor, partial curve, poor fit]

Q: For CC(C)CNc1nccc(C2(c3ccccc3Cl)CCNCC2)n1, which Potency is on record?
A: active: 22.4 µM

Q: Which Potency does the source give for CC(=O)Nc1ccc(/C=N/NC(=O)c2cc(-c3ccco3)nc3ccccc23)cc1 here?
A: inconclusive: 39.8 µM [inhibitor, partial curve, poor fit]

Q: For CC(C)CC(=O)Nc1nc2nc(-c3ccccc3)cc(=O)n2[nH]1, which Potency is on record?
A: inconclusive: 28.2 µM [inhibitor, single point]

Q: For CNc1cccc(Cl)c1Cl, which “activity change, negative = inhibition” value is on record?
A: inactive: 30.1%

Q: With CC(=O)Nc1ccc(C2(C(=O)N3CCN(c4ccccn4)CC3)CCCCC2)cc1 as the molecule, how does the Potency read?
A: active: 28.2 µM

Q: Which Potency does the source give for Cc1cccc(CN2CCCCCCNC(=O)CC2)c1 here?
A: inconclusive: 35.5 µM [inhibitor, single point]

Q: With CC(C)N1CCc2c(C#N)c(NCc3ccco3)n3cnnc3c2C1 as the molecule, how does the Potency read?
A: inconclusive: 39.8 µM [inhibitor, single point]

Q: COC(=O)C1CCNC1 (stereo unspecified) was tested. Which “activity change, negative = inhibition” value did it give?
A: inactive: 14%

Q: CC(Oc1ccccc1)C(=O)N1CCCN(c2cc(-c3ccc(Cl)cc3)[nH]n2)CC1 (stereo unspecified) was tested. Which “activity change, negative = inhibition” value did it give?
A: inactive: -4.36%

Q: O=C(CN1CCN(c2ccc(C(F)(F)F)cn2)CC1)NCc1ccc2c(c1)OCO2 was tested. Which Potency did it give?
A: inconclusive: 8.91 µM [inhibitor, full curve, poor fit]

Q: Which Potency does the source give for O=C(Cc1ccccc1F)N1CCN(c2nnc3ccc(Cl)cn23)CC1 here?
A: inconclusive: 22.4 µM [inhibitor, single point]

Q: COc1ccc(S(=O)(=O)n2nc(C)c(S(=O)(=O)N3CCCCCC3)c2C)cc1 was tested. Which Potency did it give?
A: inconclusive: 28.2 µM [inhibitor, single point]

Q: With COc1ccccc1C(=O)N/C(=C\c1ccccc1)C(=O)O as the molecule, how does the “activity change, negative = inhibition” value read?
A: inactive: 31.9%

Q: C[C@]1(CO)[C@H]2Cc3sc(NC(=O)c4cccc(F)c4)nc3[C@@H](CC(=O)NCc3ccco3)[C@]2(C)CC[C@H]1O was tested. Which Potency did it give?
A: inconclusive: 25.1 µM [inhibitor, single point]

Q: How did the “activity change, negative = inhibition” value turn out when COCCC(=O)N1CC(c2nc(CCOc3cccc(C)c3)no2)C1 was run?
A: inactive: 22.1%

Q: How did the Potency turn out when O=C(O)CCC(=O)N[C@H]1CO[C@H]2[C@@H]1OC[C@@H]2Nc1nccc(-c2ccco2)n1 was run?
A: active: 31.6 µM

Q: How did the “activity change, negative = inhibition” value turn out when COCCNc1nc2c(c(=O)n(C)c(=O)n2C)n1CCOC was run?
A: inactive: 12.5%

Q: Which Potency does the source give for Cc1ccc(NC(=O)CSc2ncc(S(=O)(=O)c3ccc(C(C)C)cc3)c(=O)[nH]2)cc1C here?
A: inconclusive: 15.8 µM [inhibitor, partial curve, poor fit]

Q: COc1cccc(CNC(=O)c2cc3ccccc3[nH]2)c1 was tested. Which Potency did it give?
A: inconclusive: 17.8 µM [inhibitor, partial curve, poor fit]

Q: Which “activity change, negative = inhibition” value does the source give for Cc1ccc2[nH]cc(CCNC(=O)Cc3ccc(F)cc3)c2c1 here?
A: inactive: 11.1%

Q: How did the Potency turn out when CCc1sc(-c2ccccc2)nc1C(=O)OC was run?
A: inconclusive: 31.6 µM [inhibitor, single point]

Q: With Cc1ccc(C(=O)c2cn(Cc3cccc(C)c3)c3nc(C)ccc3c2=O)cc1 as the molecule, how does the Potency read?
A: inconclusive: 39.8 µM [inhibitor, single point]

Q: With Cn1cc([C@@H](NC(=O)c2cccc3c2NCCC3)C2CC(O)C2)cn1 (stereo partly specified) as the molecule, how does the Potency read?
A: active: 28.2 µM

Q: For O=C(c1cc(-c2ccc(F)cc2)on1)N1CCOCC1, which “activity change, negative = inhibition” value is on record?
A: inactive: 17.9%

Q: With Cc1ccc(C(=O)CC(NCCO)C(=O)O)cc1 (stereo unspecified) as the molecule, how does the Potency read?
A: inconclusive: 25.1 µM [inhibitor, partial curve, poor fit]
